Results reported in PubChem BioAssay AID540317 (National Center for Advancing Translational Sciences (NCATS), 2011).
Values joined by “and” are separate entries in the source; they are usually repeats but may differ in a detail not shown here. Equal entries are not always repeated. Out of some 390,000 compounds screened, about 2,200 (0.56%) were called active. The shares of active, inactive and inconclusive entries below differ from those in the screen. Calls come from the whole dose curve; as a rule, active = well fitted inhibition curve with a large enough effect; inconclusive = small, poorly fitted or top-dose-only effect; inactive = no such curve, though single readings can be large or run the other way. Where the call is inconclusive, the potency comes from a doubtful curve fit.

Biological target: Chromobox protein homolog 1 (Homo sapiens) (UniProt P83916)
UniProt P83916, sequence (P83916 whole entry, looked up): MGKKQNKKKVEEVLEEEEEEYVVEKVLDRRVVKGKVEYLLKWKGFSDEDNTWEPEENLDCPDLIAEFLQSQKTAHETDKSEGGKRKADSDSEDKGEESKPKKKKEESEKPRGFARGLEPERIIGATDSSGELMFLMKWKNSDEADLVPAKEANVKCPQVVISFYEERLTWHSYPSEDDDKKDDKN
Experiment: HTS for Inhibitors of HP1-beta Chromodomain Interactions with Methylated Histone Tails; note: nearly all actives have a fitted effect of over 70% in size
Details: AlphaScreen HP1-beta / biotin-H3K9me3 peptide binding; series mostly up to 114 µM; activity change, negative = inhibition: at the top concentration
In short: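 Compound inhibition of the preformed complex between 50 nM HP1-beta and 50 nM biotinylated H3K9me3 peptide was read by AlphaScreen. Buffer was PBS pH 7.4 with 0.01% Tween-20. Incubations ran 30 min at room temperature, with 10 ug/mL donor/acceptor beads.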
Potency is the fitted concentration of half-maximal effect; tags give direction and shape of the fitted curve.

Row | SMILES | activity change, negative = inhibition | Potency
1 | ClCCN(CCCl)c1ccc(-n2cnc3c(Cl)ncnc32)cc1 | inactive: 38.6% | –
2 | O=P(NS(=O)(=O)c1ccc(Cl)cc1)(Oc1ccccc1)Oc1ccccc1 | inactive: 3.29% | –
3 | C=CC1CN2CCC1CC2[C@@H](OC(=O)c1ccc(OC)cc1)c1ccnc2ccccc12 (some centres undefined) | – | inconclusive: 70.8 µM [inhibitor, partial curve]
4 | c1ccc2c3c([nH]c2c1)C1(CCNCC1)NCC3 | – | inconclusive: 70.8 µM [inhibitor, partial curve]
5 | CCOc1ccc2[nH]c(=O)c(CN(CCO)C3(c4nnnn4C4CCCCC4)CCCCC3)cc2c1 | inactive: 44.3% | –
6 | O=C(O)c1cn(Cc2ccccc2)nc1-c1ccccc1 | inactive: 33.3% | –
7 | Cc1cc(-c2cc(C)c(N)c(C)c2)cc(C)c1N | – | inconclusive: 28.2 µM [inhibitor, partial curve, poor fit]
8 | CCOc1ccc(CN2CCN(C(=O)Cc3ccccc3)CC2)cc1 | – | inconclusive: 12.6 µM [inhibitor, full curve, poor fit]
9 | CC[C@H]1CN(C)C[C@@]2(C(=O)OC)Cc3c([nH]c4ccccc34)C(=O)C[C@@H]12 | inactive: 27.1% | –
10 | CC(=NCCCN1CCOCC1)c1c(O)n(Cc2ccccc2)c(=O)[nH]c1=O | inactive: 22.2% | –
11 | CCOc1cc2c(cc1OCC)-n1cccc1C(c1cccc(OCC)c1O)NC2 (centres undefined) | – | inconclusive: 50.1 µM [inhibitor, partial curve, poor fit]
12 | O=C(Cn1ccc2ccccc2c1=O)NCC(=O)N1CCC2(CC1)OCCO2 | inactive: 36% | –
13 | CC(C)CCOP(=O)(c1ccc(N(C)C)cc1)C(O)c1ccc(Cl)cc1Cl (centres undefined) | – | inconclusive: 79.4 µM [inhibitor, partial curve]
14 | Nc1nonc1C(=O)N/N=C/c1ccc([N+](=O)[O-])o1 | – | inconclusive: 70.8 µM [inhibitor, single point]
15 | Cn1c(O)c(/C=N/NC(=O)c2ccncc2)c(=O)[nH]c1=S | inactive: 55.9% | –
16 | O=C(Cc1ccccc1)N1CCN(Cc2ccc(F)cc2)CC1 | – | inconclusive: 14.1 µM [inhibitor, partial curve, poor fit]
17 | COc1cccc(-n2c(/C=C/c3cccc(C)c3)nc3ccccc3c2=O)c1 | inactive: 14.1% | –
18 | COc1ccc2c(c1)NP(=S)(c1ccccc1)N2C (centres undefined) | – | active: 35.5 µM
19 | CCCCCCN1CCN(c2ccc(Cl)cc2)CC1 | – | inconclusive: 31.6 µM [inhibitor, partial curve]
20 | O=C(Nc1ccc(COc2ccccc2)cc1)Oc1ccccc1N1CCOCC1 | – | inconclusive: 89.1 µM [inhibitor, single point]
21 | CCCNC(=O)N1[C@H]2CC[C@@H]1C(C(=O)OC)=C(c1cccc(C#N)c1)C2 | inactive: 88.1% | –
22 | O=C(COc1ccc(S(=O)(=O)N2CCCCC2)cc1)N1CCN(Cc2ccccc2)CC1 | inactive: 25.4% | –

Row | SMILES | activity change, negative = inhibition | Potency
23 | COC1C(C)OC(OC2CC(C)(O)Cc3cc4c(c(O)c32)C(=O)c2c(O)cc3c(c2C4=O)OC2OC3(C)C(O)C(N(C)C)C2O)C(OC)C1(C)OC (centres undefined) | – | inconclusive: 70.8 µM [inhibitor, partial curve]
24 | O=[N+]([O-])c1cc2c(cc1CNCCc1ccc3c(c1)OCO3)OCO2 | – | active: 39.8 µM
25 | CCOc1cc2c(cc1OCC)-n1cccc1C(c1cccc([N+](=O)[O-])c1)NC2 (centres undefined) | – | inconclusive: 28.2 µM [inhibitor, full curve]
26 | O=C(O)CCCCC1SCC2NC(=O)NC21 (centres undefined) | – | inconclusive: 10 µM [inhibitor, full curve, poor fit]
27 | Cc1cc(-c2n[nH]c(=S)n2-c2ccc(C)c(C)c2)no1 | – | inconclusive: 89.1 µM [inhibitor, single point]
28 | CN1C[C@H](CO)C[C@@H]2c3cccc4[nH]cc(c34)C[C@H]21 | inactive: 20% | –
29 | COc1ccc(CNCCc2c(C)[nH]c3ccc(OC(F)(F)F)cc23)c(OC)c1 | – | inconclusive: 56.2 µM [inhibitor, partial curve, poor fit]
30 | CC(C)(C)NCc1cccn1-c1sc2c(c1C#N)CCCC2 | – | inconclusive: 44.7 µM [inhibitor, single point]
31 | Oc1ccc(C2=CCNCC2)cc1O | – | inconclusive: 10 µM [inhibitor, full curve]
32 | COc1ccccc1N1CCN(Cc2ccc(SC)cc2)CC1 | – | inconclusive: 14.1 µM [inhibitor, partial curve, poor fit]
33 | CN(C)CCN(CC1CCCN(Cc2ccccc2F)C1)C(=O)Cc1ccccc1F (centres undefined) | inactive: 31.7% | –
34 | Cn1c(O)c(C(=O)c2ccccc2Cl)c(=O)n(C)c1=O | inactive: 17.7% | –
35 | Cc1ccc(OCC(=O)N2CCN(Cc3cccnc3)CC2)cc1 | – | inconclusive: 14.1 µM [inhibitor, partial curve, poor fit]
36 | CCN(CC)c1ccc(CC2C(=O)N(C)C(=O)N(C)C2=O)cc1 | – | inconclusive: 56.2 µM [inhibitor, single point]
37 | Cc1cccc(N2CCN(Cc3ccc4c(c3)OCO4)CC2)c1C | – | inconclusive: 20 µM [inhibitor, full curve]
38 | COc1cccc(CN2CC=C(c3ccc(F)cc3)CC2)c1 | inactive: 53.5% | –
39 | O=[N+]([O-])c1ccc(C(=Nc2ccccc2)N2CC2)cc1 | – | inconclusive: 70.8 µM [inhibitor, partial curve]
40 | NC(N)=Nc1ccc2[nH]c3c(c2c1)C[C@@]1(O)[C@H]2Cc4ccc(O)c5c4[C@@]1(CCN2CC1CC1)[C@H]3O5 | – | inconclusive: 2.51 µM [inhibitor, full curve, poor fit] and inconclusive: 2 µM [inhibitor, full curve, poor fit]
41 | N#Cc1c(/N=C/c2cc(Br)cs2)sc2c1CCC2 | – | inconclusive: 50.1 µM [inhibitor, partial curve, poor fit]
42 | Cc1cc(/C=C2\C(=O)NC(=O)N(Cc3ccco3)C2=O)c(C)n1-c1ccc(C(=O)O)cc1 | – | inconclusive: 70.8 µM [inhibitor, partial curve]
43 | CCCCN1C(=O)/C(=C/C=C/c2ccco2)C(=O)NC1=S | – | active: 35.5 µM
44 | Cc1ccc(C(C)C)c(OCC#CCN2CCCC2)c1 | – | inconclusive: 31.6 µM [inhibitor, partial curve]
